From the supplement of paper PMC4604168 (melanoma cell lines) come the findings set out here.

What all share (experiment): cell count relative to DMSO control; melanoma cells; higher = more viable cells
Holding throughout (settings): library dose: standard library concentration; 72 h

For assay [1], the system named is G361.
Assay [2] concerns IPC-298.
For assay [3], the system named is IST-MEL1.
For assay [4], the system named is LB2518-MEL.
In assay [5] the test system is LOXIMVI.
For assay [6], the system named is MEL-HO.
In assay [7] the test system is MZ2-MEL.
Assay [8] relates to MeWo.
In assay [9] the test system is RPMI7951.
For assay [10], the system named is RVH-421.

This is one part of the list. Many values rest on one well or one pass, so single values are uncertain.
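Further: cells treated in 1,536-well plates, then fixed and DAPI-stained, with nuclei counted from automated high-throughput microscope images.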

`O=C(Nc1cccc(Cl)c1)Nc1ncc(CCNc2ncnc3ccsc23)s1` + COc1cc2c(Oc3ccc4[nH]c(C)cc4c3F)ncnc2cc1OCCCN1CCCC1 [cediranib] (first compound 0.004 µM, partner dose 2 µM): the cell count in [1] was 101%; in assay [2], 104%; in assay [3], 69.6%; in assay [4] it was 67.3%; in assay [5] it was 99%; in [6], 90.6%. In addition, the cell count in assay [7] was determined as 93.6%; in assay [8], 79.7%; in [9], 60.3%; in assay [10] it was 81%.
Consider `C[C@@H]1CCN(C(=O)CC#N)C[C@@H]1N(C)c1ncnc2[nH]ccc12` + O=S(=O)(c1ccccc1)N(CC(F)(F)F)c1ccc(C(O)(C(F)(F)F)C(F)(F)F)cc1 [T0901317] (first compound 5 µM, partner dose 7 µM), for which the cell count in assay [1] was found to be 69.4%; in assay [2], 83.2%; in [3] it was 95%; in assay [4] it was 98.3%; in assay [5], 89.5%; in [6], 85.6%. Also, the cell count came out at 97.8% in assay [7], 91.4% in [8], 85.8% in assay [9] and 94.8% in assay [10].
For the molecule `O=C(O)c1ccc(-c2c[nH]c3ncc(-c4ccccc4)cc23)cc1C1CCCC1` + O=c1cc(-c2cccc3c2Sc2ccccc2S3)oc(N2CCOCC2)c1 [KU55933] (first compound 0.8 µM, partner dose 5 µM), the cell count in assay [1] came to 60.1%; in assay [2] it was 78.9%; in [3] it was 79.9%; in assay [4] it was 41.7%; in [5] it was 96.2%; in [6] it was 83.1%. The cell count in [7] is 78.3%; in assay [8], 88.1%; in [9] it was 68.2%; in assay [10] it was 104%.
Regarding `CC1(C)NC(=O)N(c2ccc([N+](=O)[O-])c(C(F)(F)F)c2)C1=O` [nilutamide] + C=CCn1c(=O)c2cnc(Nc3ccc(N4CCN(C)CC4)cc3)nc2n1-c1cccc(C(C)(C)O)n1 [MK1775] (first compound 5 µM, partner dose 0.1 µM), the cell count in assay [1] is 65.8%; in assay [2], 79.4%; in assay [3], 85.8%; in assay [4], 70%; in [5] it was 81.4%; in assay [6], 97.2%. The cell count in assay [7] was found to be 112%; in assay [8] it was 78.6%; in assay [9], 104%; in assay [10], 83.6%.
`O=c1[nH]nc(Sc2ncc([N+](=O)[O-])s2)n1-c1ccc2c(c1)OCCO2` + Cn1sc(=O)n(Cc2ccccc2)c1=O [TDZD-8] (first compound 1 µM, partner dose 2 µM): the cell count in assay [1] turned out to be 64.7%; in [2], 72.8%; in assay [3], 69.2%; in assay [4], 104%; in assay [5] it was 36.9%; in assay [6] it was 92.2%. Further, the cell count in assay [7] turned out to be 85.2%; in [8], 61.2%; in [9] it was 3.98%; in assay [10], 27%.
In the case of `O=c1[nH]nc(Sc2ncc([N+](=O)[O-])s2)n1-c1ccc2c(c1)OCCO2` + CO[C@H]1C[C@@H]2CC[C@@H](C)[C@@](O)(O2)C(=O)C(=O)N2CCCC[C@H]2C(=O)O[C@H]([C@H](C)C[C@@H]2CC[C@@H](OCCO)[C@H](OC)C2)CC(=O)[C@H](C)/C=C(\C)[C@@H](O)[C@@H](OC)C(=O)[C@H](C)C[C@H](C)/C=C/C=C/C=C/1C [everolimus] (first compound 1 µM, partner dose 0.1 µM), the cell count in [1] came to 53.5%; in assay [2], 78.6%; in assay [3], 77.5%; in assay [4], 70%; in [5], 44.7%; in [6], 59.2%. Besides, the cell count was determined as 64.9% in assay [7], 62.8% in assay [8], 51.5% in [9] and 63.7% in assay [10].
For the molecule `O=C(Nc1cccc(Cl)c1)Nc1ncc(CCNc2ncnc3ccsc23)s1` + COc1cc(N2CCC(N3CCN(C)CC3)CC2)ccc1Nc1ncc(Cl)c(Nc2ccccc2S(=O)(=O)C(C)C)n1 [NVP-TAE684] (first compound 0.004 µM, partner dose 0.4 µM), the cell count stood at 87.2% in [1]; 91.3% in [2]; 80.1% in assay [3]; 71% in [4]; 109% in assay [5]; 98.4% in assay [6]. Also, the cell count in assay [7] was determined as 77.3%; in assay [8], 68.7%; in [9], 46.2%; in assay [10], 100%.
As for `O=c1[nH]nc(Sc2ncc([N+](=O)[O-])s2)n1-c1ccc2c(c1)OCCO2` + CCCS(=O)(=O)Nc1ccc(F)c(C(=O)c2c[nH]c3ncc(Cl)cc23)c1F [PLX4720] (first compound 1 µM, partner dose 0.4 µM), the cell count in assay [1] was 69.4%; in assay [2], 84.5%; in assay [3], 96.6%; in assay [4], 121%; in assay [5], 52.6%; in assay [6], 99.4%. For the same molecule, the cell count in assay [7] amounted to 114%; in assay [8] it was 101%; in [9], 82.5%; in assay [10] it was 88.3%.
Regarding `O=c1[nH]nc(Sc2ncc([N+](=O)[O-])s2)n1-c1ccc2c(c1)OCCO2` + O=C(CCCCCCC(=O)Nc1ccccc1)NO [vorinostat] (first compound 1 µM, partner dose 0.4 µM), the cell count was determined as 70% in assay [1]; 102% in assay [2]; 110% in [3]; 86.8% in assay [4]; 57.7% in [5]; 94.8% in assay [6]. Moreover, the cell count in assay [7] amounted to 113%; in assay [8] it was 87.4%; in [9], 65.1%; in [10] it was 99.2%.
In the case of `O=c1[nH]nc(Sc2ncc([N+](=O)[O-])s2)n1-c1ccc2c(c1)OCCO2` + NC(=O)Nc1cc(-c2cccc(F)c2)sc1C(=O)N[C@H]1CCCNC1 [AZD7762] (first compound 1 µM, partner dose 0.1 µM), the cell count in assay [1] came out at 92.7%; in assay [2] it was 110%; in [3], 93.6%; in assay [4], 75.8%; in [5] it was 73.1%; in assay [6] it was 79.6%. Also, the cell count stood at 116% in assay [7], 77.4% in [8], 30.9% in assay [9] and 94.1% in assay [10].
For the molecule `COc1cc(Nc2ncc(F)c(Nc3ccc4c(n3)NC(=O)C(C)(C)O4)n2)cc(OC)c1OC` [Tamatinib] + Cc1ccc(NC(=O)c2cccc(N(C)C)c2)cc1NC(=O)c1ccc(O)cc1 [ZM336372] (first compound 2 µM, partner dose 10 µM), the cell count was 59.8% in assay [1]; 78% in assay [2]; 59.7% in assay [3]; 88.9% in assay [4]; 33.1% in assay [5]; 67.2% in [6]. In addition, the cell count came out at 63.2% in [7], 66.2% in assay [8], 31.7% in [9] and 110% in assay [10].
